“And” between values parts separate entries of the source, which are not always exact repeats. Equal entries are not always repeated. Hit rate of the full screen: of about 94,000 compounds, about 6,200 (6.6%) were called active. Inconclusive results, whose numbers are uncertain, are shown with a selection of clear calls. Calls come from the whole dose curve; as a rule, active = well fitted inhibition curve with a large enough effect; inconclusive = small, poorly fitted or top-dose-only effect; inactive = flat fitted curve, though single readings scatter. A potency beside an inconclusive call is a rough fit, not a confirmed value.
Experiment: Cytotoxic Profiling in HEK 293 Cell Line of Diverse Libraries Using Quantitative High-Throughput Screening; note: nearly all actives have a fitted effect of over 60% in size
Conditions: HEK 293 viability, ATP luminescence (CellTiter-Glo), 48-72 h; activity change, negative = cytotoxicity: at 115 µM (top of the series) unless noted; series mostly up to 115 µM
Method in brief: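 Cells seeded first (HEK 293, 250 cells/well), then compound added by pintool. Incubation ran 48 or 72 hr at 37 degree Celsius. CellTiter-Glo was added and luminescence imaged after 10 min at room temperature.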
For `CN(Cc1cc2cc(F)ccc2[nH]1)C(=O)C1CCC(=O)N(C2CCCC2)C1` (stereo not given), the Potency was inconclusive: 44.7 µM [inhibitor, partial curve, poor fit].
In the case of `CCS(=O)(=O)N1CCC(Cc2ccc(C(N)=O)cc2)CC1`, the “activity change, negative = cytotoxicity” value is reported as inactive: 1.72%.
In the case of `COc1ccc(-n2nc(C3CCN(C(=O)c4cccc(OC)c4)CC3)[nH]c2=O)cc1`, the “outcome” value is reported as “inactive”.
In the case of `COc1ccc(N2CC3CCC(C2)N3Cc2cccs2)cc1`, the Potency is reported as inconclusive: 100 µM [inhibitor, partial curve, poor fit].
In the case of `COc1ccc(NC(=O)CN2C(=O)NC3(CCC(C(C)(C)C)CC3)C2=O)cc1` (stereo not given), the Potency is reported as inconclusive: 3.55 µM [inhibitor, full curve, poor fit].
With `Cc1ccccc1-c1[nH]nc2ncc(-c3ccccc3F)nc12` the Potency was active: 50.1 µM.
With `COCC(=O)N1CCC2(CCN(Cc3cccc(C)n3)CC2)C(CO)C1` (stereo not given) the “outcome” value was “inactive”.
For `COc1ccc(CCNC(=O)c2ccc3nnc(-c4cccc(C(F)(F)F)c4)n3c2)cc1`, the Potency was inconclusive: 39.8 µM [inhibitor, partial curve, poor fit].
With `Cc1cn2nc(C(=O)NCc3ccc(Br)cc3)cc2c(N2CCCC2)n1` the Potency was inconclusive: 50.1 µM [inhibitor, partial curve, poor fit].
For `O=C(O)C[C@@H]1CCN(C(=O)Nc2cccc(C(F)(F)F)c2)C[C@@H]1CC1=NCCc2cc(F)ccc21`, the Potency was inconclusive: 89.1 µM [inhibitor, single point].
With `COc1ccc(OC)c(NC(=O)Cn2cccc2-c2nc(-c3ccc(F)cc3)no2)c1` the Potency was inconclusive: 25.1 µM [inhibitor, full curve, poor fit].
For `O=C(NC1CCOCC1)c1ccc2c(c1)OCCN(c1cccc(OC(F)(F)F)c1)C2`, the Potency was active: 31.6 µM.
With `CN(C)c1ccc(C(=O)N2CCC[C@H]2c2nc(-c3ccccc3)no2)cc1` the Potency was inconclusive: 8.91 µM [inhibitor, full curve, poor fit].
In the case of `COc1ccccc1CNC[C@@H]1C=C(C)[C@H](Cc2nc3c(C)cccc3[nH]2)C[C@H]1C(C)C`, the Potency is reported as inconclusive: 22.4 µM [inhibitor, full curve, poor fit].
In the case of `O=C1NC2(CCN(Cc3ccc(C(F)(F)F)cc3)C2)Oc2ccccc21` (stereo not given), the Potency is reported as inconclusive: 50.1 µM [inhibitor, partial curve, poor fit].
With `CCOC(=O)C1CCN(C(=O)C2COC3(CCCCC3)N2C(=O)c2cccc(Cl)c2)CC1` (stereo not given) the “activity change, negative = cytotoxicity” value was inactive: -19.7%.
In the case of `Cc1ccc([S+](=O)([O-])NC2CCN(C(=O)c3ccc(-c4cccs4)cc3)CC2)cc1`, the Potency is reported as inconclusive: 17.8 µM [inhibitor, full curve, poor fit].
For `COc1ccc(-c2noc([C@@H]3C[C@@H](O)CN3Cc3ccc(CO)o3)n2)cc1`, the “activity change, negative = cytotoxicity” value was inactive: -20.5% [at 172 µM].
For `COc1cccc(C(=O)N2CCC3(CC2)N=C(c2cccc(Br)c2)NO3)c1`, the Potency was inconclusive: 56.2 µM [inhibitor, partial curve, poor fit].
For `CN(C)c1cccc(C(=O)NC2CCN(c3cnn(C)c(=O)c3)CC2)c1`, the “outcome” value was “inactive”.
For `Cc1noc(C)c1CC(=O)N[C@@H]1CN(c2ccccn2)C[C@H]1CN(C)C`, the “outcome” value was “inactive”.
With `CCC(CC)c1nc(COC(=O)C2=CN(Cc3ccc(OC)cc3)S(=O)(=O)N=C2C)no1` the Potency was inconclusive: 44.7 µM [inhibitor, partial curve, poor fit].
With `C=CCNC(=O)[C@@H]1Cc2c[nH]c3cccc(c23)[C@H](CC(C)C)N1` the Potency was inconclusive: 100 µM [inhibitor, partial curve, poor fit].
For `O=C(Nc1ccc([C@@H](O)[C@H]2COCC(=O)N2Cc2ccc(F)cc2)cc1)c1ccc2c(c1)OCO2`, the Potency was inconclusive: 79.4 µM [inhibitor, partial curve, poor fit].
In the case of `Cc1ccc(S(=O)(=O)NC[C@H]2OC[C@@H](NCc3nccn3C)[C@@H]2O)cc1`, the “activity change, negative = cytotoxicity” value is reported as inactive: 1.51% [at 172 µM].
With `CC1CCCCN1CCN(C)c1nc(-c2ccncc2)nc2c1cnn2C` (stereo not given) the Potency was inconclusive: 22.4 µM [inhibitor, full curve, poor fit].
In the case of `O=C(c1ccc(Cl)cc1)N1CCC2(CC1)CN(c1ccccc1)C(=O)c1ccccc1O2`, the Potency is reported as inconclusive: 79.4 µM [inhibitor, partial curve, poor fit].
In the case of `C=CCOc1c(OC)ccc2c1CN(Cc1ccccc1)C(=O)CCN2CC(O)COc1ccc(OC)cc1` (stereo not given), the Potency is reported as inconclusive: 44.7 µM [inhibitor, partial curve, poor fit].
For `COc1cccc(CCC(=O)N2Cc3ccccc3OC3(CCN(C)CC3)C2)c1`, the Potency was inconclusive: 79.4 µM [inhibitor, single point].
In the case of `CCCCC(=O)N1CCC(OC2CCN(S(C)(=O)=O)CC2)CC1`, the Potency is reported as inconclusive: 35.5 µM [inhibitor, full curve, poor fit].
In the case of `Cc1cnc(CN(C)C(=O)CC(c2ccccc2)c2ccc(Cl)cc2)[nH]1` (stereo not given), the Potency is reported as inconclusive: 56.2 µM [inhibitor, partial curve, poor fit].
In the case of `N#Cc1ccc(C(=O)N2CCOCCNC(=O)[C@@H]3CCC[C@@H]32)cc1`, the “activity change, negative = cytotoxicity” value is reported as inactive: 0.905%.
For `CC(=O)NC1(C)CCN(Cc2cccc(-c3ccccc3)c2)C1` (stereo not given), the Potency was inconclusive: 100 µM [inhibitor, partial curve].
In the case of `Cc1cc(C)c(S(=O)(=O)N2CC(c3nc(Cc4ccccc4)no3)C2)cc1C`, the Potency is reported as inconclusive: 89.1 µM [inhibitor, single point].
In the case of `Cn1ncc2c(C(=O)NC3CC3)cc(-c3cccnc3)nc21`, the Potency is reported as inconclusive: 79.4 µM [inhibitor, partial curve] and active: 63.1 µM.
In the case of `Cc1n[nH]c(C)c1Cc1ccc(C(=O)N2CCC(CCOc3ccc(F)cc3)C2)o1` (stereo not given), the Potency is reported as active: 22.4 µM.
For `COc1cccc(CN2CCC(C(=O)Nc3ccccc3-c3cccc(OC)c3)CC2)c1`, the Potency was active: 22.4 µM.
For `CN(C(=O)C(C)(C)C)C1CCCc2ccccc21` (stereo not given), the Potency was inconclusive: 158 µM [inhibitor, partial curve, poor fit].
In the case of `CC(C)CCN1CCC(N2CCN(C(=O)c3ccc(F)cc3F)CC2)C1=O` (stereo not given), the “outcome” value is reported as “inactive”.
In the case of `O=C(C1CCCN1[S+](=O)([O-])c1cccc(C(F)(F)F)c1)N1CCC(N2Cc3cccn3C2=O)CC1` (stereo not given), the Potency is reported as inconclusive: 50.1 µM [inhibitor, partial curve, poor fit].

Source: PubChem BioAssay AID1345083 (National Center for Advancing Translational Sciences (NCATS), 2018)
% is set by controls: 0 for no effect and ±100 for the full control effect; potency is the fitted concentration of half-maximal effect; tags give direction and shape of the fitted curve.
